# Assay results reported in the supplement of paper PMC11417369.
# The list shows a part of the results.
# Test system: PF3D7_0420300 AP2 domain 1 (GST-tagged)
# Assay: gcPBM binding intensity (ln(normalized median fluorescence intensity)); higher = stronger DNA binding
# Method in brief: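 DNA-binding domains from P. falciparum, fused to GST and produced in E. coli, were put on an Agilent 4 × 180k double-stranded probe array for 1 h in 1× PBS holding 1% milk, 0.2 mg/ml BSA, 0.5% salmon testes DNA and 0.03% Triton X-100. Probes were primer-extended, 36 bp long and drawn from intergenic genomic regions, with negative controls included. After Alexa488 anti-GST antibody detection and a 488 nm scan, binding intensity was set as the highest Masliner-normalised natural-log median intensity across replicate spots of either probe orientation.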
row,Sequence,gcPBM binding intensity (ln)
1,TATAAAAAAAATTGCACACATATTATACAGGACGAC [CACACA_site701],10
2,TGGATGTTAATATAGTGTACATTTATAAGTCAGTAT [XGTACX_site2949],9.45
3,GTGGAAAAAAATAATTGTACACAATAATAAATATAT [XGTACX_site2414],9.42
4,GAAAAAAAATCCAAGATGCACTATTATTACAAAAAT [GTGCAC_site9516],9.28
5,ATGTAATATATGCGGAAATATATTCACAAGACGTCA [CACACA_negctrl_site373],9.3
6,GTCAAAAGTTTTTAAGGTACACTTATTTTATTATAA [XGTACX_site7004],9.22
7,CACTAAACATATACACGTACATGCAACGGATTTTTT [XGTACX_site461],9.34
8,ACCTTTATTGTATGAACACACATAAGCTGATACATC [CACACA_site4028],9.48
9,AATATATGGTTCCTTGATATTAAATTCAATTTAATG [CACACA_negctrl_site71],9.12
10,TGTGTATATGTGCAAAGTACAAAAAAGAAATTATTT [XGTACX_site7569],9.32
11,TAAATCTATATCATCACACACACATACATAAATATA [CACACA_site6228],9.88
12,TAGTATTGTAAAAAAAAAAAAGAAAAAAAAAAAAAA [CACACA_negctrl_site977],8.75
13,TATAATGATGATGATAGTACGTATGAGTTCAAAAAA [XGTACX_site3656],9.33
14,TTAAAATCTTGAAAAGTGCATTATCATTTTGTAACG [GTGCAC_site9447],8.92
15,TATATATTTATATATGCATGTACATTTTTATTTATT [TGCATGCA_site1048],9.42
16,CTGAATGTATATATTTGTACATATATATATATATAT [XGTACX_site5557],9.16
17,AAAAAAAAAAAACACGCATGTACATAAAAATAATCA [TGCATGCA_site142],9.52
18,GGGTATAATAAAAGCACACACAAAGATATAAATATA [CACACA_site3308],9.79
19,TTTTTTTTTTTTAATTAACACACATAAATATATATA [CACACA_site9077],9.11
20,TATAGATACCTATACACACACACACGGACATATATA [CACACA_site7585],10.2
21,ATATAAAACAACGGGTGTACAAAAAAATAAATAATA [XGTACX_site4094],9.56
22,AAAGAAATGAAATATACACACATACCTATATACATA [CACACA_site7817],9.77

row,Sequence,gcPBM binding intensity (ln)
1,TTTTTCTTCTGCATTATGCACACTATAATTCGTTAA [CACACA_site2837],9.3
2,TTTTTAATATATAAAGATAATAATAAATAAAATTCA [CACACA_negctrl_site657],8.9
3,ATCATATGTATGCATACACACAAAAAATTATATATA [CACACA_site398],9.43
4,TATAATGATATAACAACACACATGTATGTATTATTA [CACACA_site230],9.35
5,TTATTTATGATATATACACACTAACATTATTTATCC [CACACA_site6720],9.46
6,TCTTATATATGCTTAAATATATTATATTTATTTGAA [CACACA_negctrl_site1757],8.99
7,AACCATAAATAATTATGTACTAAAAAAAATATATAT [XGTACX_site3415],9.31
8,TGGAGGATAGTTCACAGTACCCAGAAACTCTACGGA [XGTACX_site2560],8.97
9,ATAATATATTTATGTTGTACAAGGAAAATTTTGAAA [XGTACX_site3472],9.26
10,GAAATGGAAAAATATACATGCGCATATAAATTAATA [TGCATGCA_site834],9.19
11,ATATTTTTTACTATTACACACAAGGGATTATTATTT [CACACA_site3915],9.64
12,TCAAATAATTTGTTGACACACACACCCACATACATA [CACACA_site8717],9.85
13,ACCTTATAAAAAAAAAGTACATATATAAATAATAAA [XGTACX_site4338],9.21
14,AAACAATAAAAGATTACACACATATATAGCATATAT [CACACA_site1698],9.86
15,TATACATAATATATATGTACATATATTCTTTATTTT [XGTACX_site4565],9.23
16,TTTTCGATATGCTTTTTTTTTCTACTGTCTTTTTAA [TGCATGCA_negctrl_site54],9.38
17,ATATCAAATTCTGAAACACACAAAATTACACCTCTA [CACACA_site169],9.45
18,CAAAAATATTATTATAGTACATAAATAATATATTTT [XGTACX_site6902],9.07
19,TAAAAATAGGAGTGTGTGCACATAAATTATATACTA [GTGCAC_site9405],9.66
20,CACATACATAAATACACACACAAAATAATAAAATAA [CACACA_site5304],10
21,TTACTTAATAGACACACACACAAAAAAAAAAAAAAA [CACACA_site6572],9.75
22,TTTTCATTTTTCTTTACACACATATATATATATATA [CACACA_site2236],9.72

row,Sequence,gcPBM binding intensity (ln)
1,GAAAGACAAATTGTGACACACACAAAAAAAAAAAAA [CACACA_site9241],9.49
2,AAAAAAAAAAAAAAAAAAAAACACCCAAAAAAATAT [XGTACX_negctrl_site210],9.62
3,TATATATATATTTTTTGTACATATTATATAATATAC [XGTACX_site5187],9.35
4,GTAAACAATTATGAACGTACATAAAATAAATGAACA [XGTACX_site7159],9.42
5,TGTCTTTTTAAGTTTTGTACATAAATATATTTCAAA [XGTACX_site427],9.01
6,AGTATACACAGACACACACACACATATATATATATA [CACACA_site8510],10.2
7,TTTTTATGGACTATGGTGCATTATATATAAATGAAA [GTGCAC_site9557],8.99
8,TAATATTATATAAATTGTACTATTTTTTCCTTATTC [XGTACX_site5314],9.16
9,TATTTATGCACGCGTGCACACACATATGAAAAAAGG [CACACA_site9090],9.7
10,AATTGCTAATGGTACGAACACACATATAAAGATGCA [CACACA_site8634],9.43
11,CTTTCATATGTTTTAACACACACGCATATATTATAG [CACACA_site7033],9.82
12,ATATAAGTTATTTTATACAAAAAAAAAAAAAAAAAT [CACACA_negctrl_site1190],9.18
13,AAGAATGTTAACGTTGCACACAAAAAAAAAGTATAC [CACACA_site8763],9.55
14,AAAAAAAAAAAAAATACACACACATATATATATATA [CACACA_site8698],9.55
15,ATATATATAATAAATACACACATTTATATAGATAAA [CACACA_site3254],9.56
16,ATTCAATATTTATACACACACACTTTTAATAATTAA [CACACA_site7725],9.83
17,TCATTCAGTTTTATCACACACAATCAAACATATATA [CACACA_site2742],9.5
18,AAACATTTATCAATGAATCTTTTAATAAGTGTAAAG [XGTACX_negctrl_site80],8.88
19,TATTTTTTTAGATATACATGCAAAAACAGAAGAAAT [TGCATGCA_site283],9.34
20,AATATAAGGATATATACACACATAAATACATACATA [CACACA_site7859],9.89
21,TCAACATTCATTGGAAGTACTCACTCCCATATAATA [XGTACX_site5211],8.97
22,TGAACTTTAAACCCTGAACACACACTAATACACCCA [CACACA_site7970],9.77

row,Sequence,gcPBM binding intensity (ln)
1,AATATGTCATATATGTGTACATATGCACAGATATTA [XGTACX_site951],9.15
2,ATAAAAAGAAATCCAATACACACCTTCAAAATGGGT [CACACA_site1622],9.69
3,TAATAAATAAATGACACACACACACCCAAAAAAAAA [CACACA_site2623],10.2
4,TTATTAACCTAAATTAGTACATATAATATAAAAAAT [XGTACX_site8661],9.18
5,AGCTATGTATTCTACACACACATACACCCATATATA [CACACA_site5827],10.1
6,AAAATATTATCTAATTGTACTTATATAACTATATAT [XGTACX_site5699],9.21
7,TTGAAATGCATGAACACACACAGCTATAAATGCATA [CACACA_site968],9.49
8,AAATTTATGAACCTAGTGCAGAAATTAAAAAGATGA [GTGCAC_site9396],9.38
9,ATACTAAGGAGAAAAGAAAAGTGAATTTATTCTATA [CACACA_negctrl_site1792],9.03
10,TTAAATACTAAAAAGTGTACACATACATAAAAAATT [XGTACX_site6261],9.49
11,ATTATGTTAATAATATGTACATATATCTACATATAT [XGTACX_site7978],9.16
12,ATTATTTTGTTTATTACATGCAGGTGTATATTACAG [TGCATGCA_site723],9.36
13,GAGTATATTTATATTGCACACAATTTTTTTATTTTT [CACACA_site2644],9.54
14,CATAAATGTCTCACATGTACATATGCATTTTTAAAA [XGTACX_site3194],9.06
15,TATATATAATATTGCACACAAAATTAAAAGTAAATA [CACACA_site19],9.46
16,CAACTCTTATTTAATTATATGAATTAATTTATATGA [CACACA_negctrl_site200],8.95
17,TGCATAAATTTATGCACACATAAAAAAAAAAAAAAA [CACACA_site2923],9.14
18,AATATCTTAGTGGATACACACATATAAATGTGTATT [CACACA_site6367],9.5
19,CTTTCAATTTTTTTCTGTACCAATAAAAAATATAAA [XGTACX_site2120],8.48
20,TTGAGCATAAAATTTGGAAACCTCAATCGGACAAAA [GTGCAC_negctrl_site84],9.13
21,GATTACAAAAAAAATACACACAAAAAAAAAAAGGAA [CACACA_site2096],9.99
22,ATATTTATGTAAAAAAGTACATACAATTATATATGT [XGTACX_site3750],9.22
